Assay results published in ChEMBL document CHEMBL4888484, “Replenishing the malaria drug discovery pipeline: Screening and hit evaluation of the MMV Hit Generation Library 1 (HGL1) against asexual blood stage Plasmodium falciparum ,using a nano luciferase reporter read-out” (2022).
The campaign covered roughly 4,800 compounds. About 420 (8.8%) showed an effect of 50% or more. The list shows a part of the results.

tested on: Plasmodium falciparum; test: Confirmatory screen in NF54 nanoGlo assay, in single point, at 2uM, 72h; format: functional, Erythrocyte; conditions: timepoint 72 hour

SMILES | % Inhibition
O=C(O)c1cc2ccoc2n1Cc1ccccc1 | 3%
Cc1cc(C(=O)Nc2cc(C)nn2C)nc(N(C)C)n1 | -1%
Cc1c(C)n(CC(O)CNC(C)c2ccccc2)c2c(Cl)cccc12 (configuration not stated) | 64%
C[C@@H](CC(=O)Nc1cncnc1-n1cccn1)c1ccccc1 | -3%
Cc1cccc([C@H]2NCCc3sccc32)n1 | 2%
CC1(C)CCCc2sc(NC(=O)N[C@H]3CCOC4(CCC4)C3)nc21 | -2%
CCOC(=O)n1c(=O)[nH]c2ccc(Br)cc21 | -10%
COc1ccc(COC(=O)c2cccnc2C)cn1 | -9%
CC(C)N1CCN(C(=O)CN2N=C(c3nc(-c4ccccc4)no3)CCC2=O)CC1 | 5%
CCN1C(=O)CCN(C(=O)c2ccnn2C)CC12CCOCC2 | 2%
COCc1cc(C(=O)N[C@H](c2ccccc2)C2CCOCC2)no1 | 0%
O=C(Nc1ccc(N2CCOCC2)nc1)c1cccs1 | -12%
CN(C)c1ccc(-c2nc(C(F)(F)F)cc(C(F)(F)C(F)(F)F)n2)cc1 | 4%
COc1ccc(C(=O)N2CCN(c3cc(N4CCOCC4)nc(C)n3)CC2)cc1 | -7%
CNc1nc(C)nc(O)c1Br | -7%
COc1ccc(CNC(=O)Cn2c(=O)n(Cc3cccc(OC)c3)c(=O)c3sccc32)cc1 | 1%
CC(C)Nc1cccc(CNC(=O)N2CCOC[C@@H]2C)c1 | -9%
CCn1c(=O)c(N2CCN(C(=O)Nc3cccc(C(F)(F)F)c3)CC2)nc2ccccc21 | -2%
Cc1c(Nc2[nH]cnc3ncnc2-3)c(=O)n(-c2ccccc2)n1C | -12%
Cc1cc(C)nc(OC(C(=O)O)C(OCc2ccccc2)(c2ccc(C(F)(F)F)cc2)c2cccc(C(F)(F)F)c2)n1 (configuration not stated) | 0%
Cc1ncsc1C(=O)Nc1cccc(S(=O)(=O)N2CCC(CO)CC2)c1 | -3%
Cn1ncc2nnn(-c3ccccc3)c(=O)c21 | -1%
CCc1ccc(NC(=O)[C@H]2CCCN(c3nc4cccnc4n(Cc4ccccc4)c3=O)C2)cc1 | -6%

SMILES | % Inhibition
Cc1nscc1C(=O)Nc1cccc(OCCN2CCCC2)c1 | -8%
COc1cc(OC)c(NC(=O)c2cnn3c4c(cnc23)CCCCCC4)cc1Cl | 3%
COc1cccc(-c2cc3c(N4CCC5(CC4)OCCO5)nccn3n2)c1 | -3%
O=C(NCc1ccc(S(=O)(=O)N2CCCC2)cc1)c1cc[nH]n1 | -1%
COc1ccc(N[C@@H](C)C(=O)NC(=O)NC2CC2)c(OC)c1 | -3%
COc1cc(OC)cc(C(=O)Nc2cnc(N3CCCCC3)c(C)c2)c1 | 0%
CCC(C)C(NC(=O)c1ccccc1NC(=O)c1ccco1)C(=O)N1CCCCCC1 (configuration not stated) | -9%
Cc1c(C)n(C[C@@H](O)CNC2CCCC2)c2c(Cl)cccc12 | -1%
CCCC1CCC(OC(=O)c2ccc(C(=O)OC3CCC(CCC)CC3)nc2)CC1 (configuration not stated) | 1%
CCCCN(C(=O)c1ccccc1)C(=O)c1ccccc1 | -1%
Cc1ccc(COc2cccc(CNC3CC3)c2)cc1 | -7%
O=C(O)C1CC1C(=O)N1CCN(c2ccc(Cl)c(Cl)c2)CC1 (configuration not stated) | -3%
Cc1cc(C)c(S(=O)(=O)N2CCC(C)(C(=O)NCc3ccc4c(c3)OCO4)CC2)cc1C | 3%
OC[C@H]1CCc2nnc(C(F)F)n2C1 | -6%
N#Cc1c(N2CCCCC2)ncc2c(=O)c3ccccc3[nH]c12 | -4%
C[C@H]1CCCCN1CCNC(=O)c1cc2c(s1)N(C)CCCC2 | -11%
CC1(CN2CCOCC2)CCN(CC(=O)N2CCc3sccc3C2)CC1 | -1%
CC(C)NC(=O)CN1CCC2(CC1)NC(c1ccc(OC(F)(F)F)cc1)=NO2 | -1%
O=C(Nc1ccc2c(c1)OCO2)[C@@H](c1cccc(F)c1)N(Cc1ccc(F)cc1)C(=O)Cn1nnc2ccccc21 | 5%
O=C(CN1C(=O)C[C@H](Cc2ccc(F)cc2)C1=O)N1CCNC1=O | -1%
CC[C@H](N)C(=O)N(CC1CC1C)C(C)C (some centres not stated) | 4%
CCN(CC)c1ccc(C(=O)OCC(=O)NC(C)(C)C)cc1 | -5%
COc1ccc(C2(NCc3cc(O)cc(Cl)c3)CCOCC2)cc1 | 24%

SMILES | % Inhibition
O=C1Nc2ccc(Br)cc2C1=O | 2%
CC(C)n1[nH]c(=O)c2c1NC(=O)C[C@@H]2c1cccc2nccnc12 | 0%
N#CCC(=O)NC1CCC(CC2CCC(NC(=O)CC#N)CC2)CC1 (configuration not stated) | -4%
Clc1cccc(CNc2cc(-c3ccco3)n[nH]2)c1 | -7%
Oc1c(Br)cc(Br)cc1/C=C/c1ccc(CN2CCOCC2)cc1 | -4%
COc1ccc2nc(C)c(C(=O)N3CC(OCC(F)F)C3)n2n1 | -5%
Oc1cccc(CN[C@H]2CCCc3occc32)c1Cl | 71%
O=C(c1cn[nH]c1-c1ccccc1)N1CCCCC1 | -8%
CC(C)Cn1c(C(F)(F)F)cnc1N | 3%
CCn1nc(C)c(CNc2nnc(C3CCCCC3)o2)c1C | -12%
Cc1ccc(CN2CCN(CC(=O)NC3CCCCC3C)C2=O)cc1 (configuration not stated) | -10%
COc1ccccc1N1CCN(C(=O)c2nnn(-c3ccccc3Cl)c2-c2cccnc2)CC1 | -2%
O=C(O[C@@H](c1ccccc1)N1C(=O)C(C(F)(F)F)(C(F)(F)F)c2ccccc21)C(C(F)(F)F)C(F)(F)F | 5%
O=C(COC[C@H]1CCCO1)Nc1ccc2[nH]c(=O)sc2c1 | -2%
CCC[C@H](C)CS(=O)(=O)NCc1ccnc(OC(C)C)c1 | -11%
C[C@H](NC(=O)c1nnn(C)c1C(F)(F)F)c1cscn1 | 7%
Cc1c(NC(=O)c2n[nH]cc2Cl)c(=O)n(-c2ccccc2)n1C | -13%
COc1cc(C)cc(C)c1S(=O)(=O)N(C)Cc1nnc[nH]1 | 4%
CCOc1ccc(NC(=O)c2cnc(N(Cc3ccccc3)C(C)C)nc2N)cc1 | -15%
COC(OC)c1ccnc2c(C#N)cnn12 | -3%
CC1CC(NC(=O)NC2CS(=O)(=O)c3ccccc32)C(=O)N1c1ccccc1 (configuration not stated) | -1%
